The campaign covered roughly 220,000 compounds. About 16,000 (7.3%) were called active. Inconclusive means that the source gave no clear call. Such entries were picked first, then a sample of the others. The call rests on the fitted dose curve; in most records, active means well fitted inhibition curve with a large enough effect (not every such curve was filed as active); inconclusive means small, poorly fitted or top-dose-only effect, or another doubt; inactive means no such curve, though single readings can be large or run the other way. Potencies of inconclusive entries are left out as doubtful fits.
Biological target: Aldehyde dehydrogenase 1A1 (Homo sapiens) (UniProt P00352)
Chain of UniProt P00352 (P00352 whole entry, looked up): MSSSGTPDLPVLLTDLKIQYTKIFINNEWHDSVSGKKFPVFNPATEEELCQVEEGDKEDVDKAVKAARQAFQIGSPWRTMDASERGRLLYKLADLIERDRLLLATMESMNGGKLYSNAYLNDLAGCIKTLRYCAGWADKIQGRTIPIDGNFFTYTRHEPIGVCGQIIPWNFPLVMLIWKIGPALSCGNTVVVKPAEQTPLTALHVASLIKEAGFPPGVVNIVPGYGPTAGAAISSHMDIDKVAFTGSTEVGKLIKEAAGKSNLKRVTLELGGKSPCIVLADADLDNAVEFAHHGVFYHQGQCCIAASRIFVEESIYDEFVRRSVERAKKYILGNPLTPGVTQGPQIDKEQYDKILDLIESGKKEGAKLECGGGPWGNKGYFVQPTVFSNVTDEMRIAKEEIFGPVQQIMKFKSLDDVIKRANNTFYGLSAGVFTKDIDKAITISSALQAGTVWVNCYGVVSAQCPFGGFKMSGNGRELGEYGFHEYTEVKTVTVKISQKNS
Test: qHTS Assay for Inhibitors of Aldehyde Dehydrogenase 1 (ALDH1A1)
Details: Purified ALDH1A1, NADH fluorescence, propionaldehyde substrate; series mostly up to 75.3 µM
Potency means the concentration at half of the fitted maximal effect; tags describe the fitted curve by direction and shape.

Row | Structure (SMILES) | Potency
1 | Clc1ccc(CSc2nnc(CN3CCOCC3)n2-c2ccccc2)cc1Cl | active: 17.8 µM
2 | NC(=O)c1c(-c2cccs2)csc1N | inconclusive [inhibitor, single point]
3 | CCCCn1nc2cc(C(=O)NC[C@@H]3CCCO3)ccc2c1OCC | inconclusive [inhibitor, partial curve]
4 | COc1ccc(-n2c(Cc3cccn3C)nnc2SCC(=O)NCc2ccccc2Cl)cc1 | inconclusive [inhibitor, single point]
5 | O=C(/C=C/c1ccc(F)cc1)NCCc1ccc2c(c1)OCCO2 | inactive
6 | Cc1cc(C)cc(NC(=O)CN2CCCN(S(=O)(=O)c3ccc(Br)s3)CC2)c1 | inconclusive [inhibitor, single point]
7 | O=C1C2C(C(=O)N1/N=C/c1ccco1)C1C=CC2C12CC2 (stereo not given) | active: 10 µM
8 | Cc1cc(=O)oc2cc(NC(=O)CCC(=O)O)ccc12 | inconclusive [inhibitor, partial curve]
9 | COc1cc2cc(C(c3nnnn3C3CCCC3)N3CCCCCC3)c(=O)[nH]c2cc1OC (stereo not given) | inconclusive [inhibitor, partial curve]
10 | Cc1ccc(Cc2cnc(NC(=O)CN3CCOCC3)s2)cc1Cl | inactive
11 | CC(C)CNC(=O)c1ccccc1NC(=O)/C=C/c1cccc([N+](=O)[O-])c1 | inactive
12 | O=S(=O)(NCC(c1cccnc1)N1CCN(c2ccccc2F)CC1)c1cccs1 (stereo not given) | inconclusive [inhibitor, single point]
13 | Cn1nc(/C=C/c2ccccc2)ccc1=O | inconclusive [inhibitor, partial curve]
14 | Cc1cccc(CNC(=O)CCc2nnc(C3CCCCC3)o2)c1 | inactive
15 | CN1c2ccccc2C(C)(C)C12CCCC(=O)N2 (stereo not given) | inconclusive [inhibitor, single point]
16 | CCSc1nc2nc(C)cc(C)n2n1 | inactive
17 | Cc1cccc(OCCOc2ccc(/C=N/NC(=O)Cc3nnc(N)s3)cc2)c1 | inactive
18 | CCOc1ccc(-n2c(SCC(=O)Nc3ccc(OC)cc3OC)nc3c(c2=O)SCC3)cc1 | inconclusive [inhibitor, partial curve]
19 | CCCCN1C(=O)c2ccc(C(=O)Nc3ccc(C)c(S(=O)(=O)N(C)C)c3)cc2C1=O | inconclusive [inhibitor, full curve]
20 | CCCCN(C(=O)c1ccc2c(c1)OCO2)c1ccccc1 | active: 14.1 µM
21 | CCCN1C(=O)/C(=C\C=C2/Sc3ccccc3N2CC)SC1=S | inconclusive [inhibitor, full curve]
22 | COc1ccc(C(c2c(NC(=O)c3ccccc3)sc(C)c2C)N2CCN(CCO)CC2)cc1 (stereo not given) | inconclusive [inhibitor, single point]
23 | COc1ccc(NC(=S)NC(C)c2ccncc2)cc1OC (stereo not given) | inactive
24 | O=C(Nc1cccc(S(=O)(=O)NC2=NCCCCC2)c1)c1cc(-c2ccc(Cl)cc2)nc2ccccc12 | inconclusive [inhibitor, single point]

Row | Structure (SMILES) | Potency
25 | CCCCNC(=O)N1CCN(C(=O)C2CCCO2)CC1 (stereo not given) | inactive
26 | Cc1c(C(=O)NCC2CCCO2)oc2ccc(S(=O)(=O)N3CCCCC3)cc12 (stereo not given) | inconclusive [inhibitor, single point]
27 | Cc1ccc(O)c(C(=O)c2coc(=N)c(C(=O)NC(C)C)c2)c1 | inconclusive [inhibitor, partial curve]
28 | COc1ccc(CCCC(=O)N/N=C/c2ccc(C)cc2)cc1 | inconclusive [inhibitor, single point]
29 | COc1ccc(S(=O)(=O)NCc2ccc(C(=O)NCc3cccnc3)cc2)cc1 | inactive
30 | Cc1cc(-c2n[nH]c(=S)n2/N=C/c2cc([N+](=O)[O-])ccc2Cl)n[nH]1 | inconclusive [inhibitor, partial curve]
31 | COC(=O)c1cc(OC)c(OC)cc1NC(=O)Cc1cccs1 | active: 3.16 µM
32 | Cc1ccc(-c2nn(-c3ccccc3)cc2/C=C/C(=O)Nc2nccs2)cc1 | inconclusive [inhibitor, partial curve]
33 | O=C(NNC(=O)c1cc2cc3ccccc3nc2s1)c1ccc(F)cc1 | inconclusive [inhibitor, single point]
34 | O=S(=O)(c1ccc(F)cc1)N1CN(Cc2ccco2)c2nc3ccccc3nc21 | inconclusive [inhibitor, single point]
35 | Cc1ccc(-c2nc3ccccc3o2)cc1NC(=O)Cc1cccs1 | inconclusive [inhibitor, single point]
36 | CCOc1ccc(NS(=O)(=O)c2ccc(NC(=S)NC(=O)CC(C)C)cc2)cc1 | inconclusive [inhibitor, single point]
37 | CS(=O)(=O)c1ccc2nc(NC(=O)CC3CCCC3)sc2c1 | inconclusive [inhibitor, single point]
38 | COc1ccc(NS(=O)(=O)c2cccc(C(=O)NNC(=O)NCCCl)c2)cc1 | inconclusive [inhibitor, single point]
39 | CN1/C(=C\C=C2\N=C(c3ccc(F)cc3)OC2=O)C(C)(C)c2ccccc21 | inconclusive [inhibitor, partial curve, poor fit]
40 | C[C@H]1[C@H]2CC[C@H]3C4CC=C5C[C@@H](N(C)C)CC[C@]5(C)C4CC[C@]23CN1C (stereo not given in full) | inactive
41 | CN(C)c1ccc(C=Nc2ccc(N(C)C)cc2)cc1 | active: 2.24 µM
42 | [O-][N+]1=c2ccc(Nc3ccccc3)cc2=NC12CCCCC2 | active: 3.55 µM
43 | CCOC(=O)c1cc(CC)sc1/N=C/C1C(=O)CC(C)(C)CC1=O | active: 11.2 µM
44 | C/C(=N\NC(=O)c1ccc(NS(=O)(=O)c2cccs2)cc1)c1ccc2c(c1)OCO2 | inconclusive [inhibitor, single point]
45 | Cc1cc(C(=O)COC(=O)c2ccc(O)cc2)c(C)n1CC1CCCO1 (stereo not given) | inconclusive [inhibitor, partial curve]
46 | C#CCOCCOCCOCCNc1nc(N2CCOCC2)nc(N2CCN(C(=O)[C@H](CCCCN)n3cc([C@@H](N)CO)nn3)CC2)n1 | inconclusive [inhibitor, partial curve]
47 | CCOC(=O)N1CCN(C(=O)c2ccc(OC(C)=O)cc2)CC1 | inactive
48 | N#C/C(=C\c1coc2ccccc2c1=O)C(N)=S | active: 31.6 µM

Row | Structure (SMILES) | Potency
49 | Cc1cc(NC(=O)CSc2nnc(-c3cccnc3)n2Cc2ccccc2)no1 | inactive
50 | Cc1cccc2cc(CN(CC3CCCO3)C(=S)NCc3ccco3)c(=O)[nH]c12 (stereo not given) | inconclusive [inhibitor, partial curve]
51 | C/C(=N/NC(=O)CNc1ccc(C)cc1)c1ccc(Br)s1 | active: 14.1 µM
52 | COc1ccc(N(CC(=O)NCc2ccco2)S(=O)(=O)c2ccc(C)cc2)cc1 | inconclusive [inhibitor, single point]
53 | CC1=C(C(=O)Nc2ccccc2)C(c2cc(CN3CCOCC3)cs2)C2=C(CCCC2=O)N1 (stereo not given) | inconclusive [inhibitor, single point]
54 | O=[N+]([O-])c1cccnc1N1CCN(c2ccccc2F)CC1 | inconclusive [inhibitor, single point]
55 | O=C(NCCc1nc2ccccc2[nH]1)/C(=C/c1ccc2c(c1)OCO2)NC(=O)c1ccc(Cl)cc1Cl | inconclusive [inhibitor, single point]
56 | CCOC(=O)CC(=O)CSc1nc(N)c(C#N)c(-c2ccc(Cl)cc2)c1C#N | inconclusive [inhibitor, single point]
57 | Cc1cccc(N/C(=N\S(=O)(=O)c2ccccc2)C(F)(F)F)c1 | inactive
58 | COc1cccc(C2C(C(=O)/C=C/c3ccco3)=C(O)C(=O)N2CCN2CCOCC2)c1 (stereo not given) | inactive
59 | Cc1cccc(-c2nc3ccccc3c(=O)n2NC(=O)c2cccnc2Cl)c1 | inactive
60 | Cc1cc2c3c(c1)C1(C(=O)N3C(C)(C)CC2C)C(C#N)=C(N)OC2=C1C(=O)CC(C)(C)C2 (stereo not given) | inconclusive [inhibitor, partial curve]
61 | CCc1nnc(NC(=O)c2ccc3ccccc3n2)s1 | active: 17.8 µM
62 | COc1ccc(S(=O)(=O)N2CCN=C2SCc2cccnc2)cc1 | inconclusive [inhibitor, partial curve]
63 | O=C1N=C(N2CCOCC2)S/C1=C\c1cccs1 | inconclusive [inhibitor, single point]
64 | O=C(CCc1nnc(Cc2ccc(-c3ccccc3)cc2)o1)NCCc1ccccn1 | inconclusive [inhibitor, partial curve, poor fit]
65 | COc1ccc(/C=N/Nc2nnc(Cc3ccc(OC)c(OC)c3)c(=O)[nH]2)cc1OC | inactive
66 | C/C(CC1CC2=C(CC1(C)C)C(C)(C)CCC2)=N\NC(N)=S (stereo not given) | active: 12.6 µM
67 | CC(=O)c1cc(C#N)c(SCC(=O)OC(C)C)nc1C | inconclusive [inhibitor, single point]
68 | Fc1ccc(NC(=S)Nc2nccs2)cc1 | inconclusive [inhibitor, single point]
69 | CC(C)Cn1c(/C=C/c2ccco2)nc2ccccc21 | inconclusive [inhibitor, partial curve]
70 | Cc1ccn2c(CN3CCOCC3)c(-c3ccccc3)nc2c1 | inconclusive [inhibitor, single point]

From PubChem BioAssay AID1030 (National Center for Advancing Translational Sciences (NCATS), 2008)
